Source: paper PMC4336329 (PLoS ONE, 2015)
Hit rate of the full screen: of about 310,000 compounds, about 14,000 (4.5%) showed an effect of 50% or more. The effect is printed as a negative number. This is one part of the list.

Target: human ether-à-go-go-related gene (hERG) potassium channel (human, UniProt Q12809)
Test: primary screen, population patch clamp on CHO cells stably expressing hERG
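Also: peak tail current of the secondary pulse compared with the same well before compound.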

Sequence of human ether-à-go-go-related gene (hERG) potassium channel (Q12809 whole entry, looked up): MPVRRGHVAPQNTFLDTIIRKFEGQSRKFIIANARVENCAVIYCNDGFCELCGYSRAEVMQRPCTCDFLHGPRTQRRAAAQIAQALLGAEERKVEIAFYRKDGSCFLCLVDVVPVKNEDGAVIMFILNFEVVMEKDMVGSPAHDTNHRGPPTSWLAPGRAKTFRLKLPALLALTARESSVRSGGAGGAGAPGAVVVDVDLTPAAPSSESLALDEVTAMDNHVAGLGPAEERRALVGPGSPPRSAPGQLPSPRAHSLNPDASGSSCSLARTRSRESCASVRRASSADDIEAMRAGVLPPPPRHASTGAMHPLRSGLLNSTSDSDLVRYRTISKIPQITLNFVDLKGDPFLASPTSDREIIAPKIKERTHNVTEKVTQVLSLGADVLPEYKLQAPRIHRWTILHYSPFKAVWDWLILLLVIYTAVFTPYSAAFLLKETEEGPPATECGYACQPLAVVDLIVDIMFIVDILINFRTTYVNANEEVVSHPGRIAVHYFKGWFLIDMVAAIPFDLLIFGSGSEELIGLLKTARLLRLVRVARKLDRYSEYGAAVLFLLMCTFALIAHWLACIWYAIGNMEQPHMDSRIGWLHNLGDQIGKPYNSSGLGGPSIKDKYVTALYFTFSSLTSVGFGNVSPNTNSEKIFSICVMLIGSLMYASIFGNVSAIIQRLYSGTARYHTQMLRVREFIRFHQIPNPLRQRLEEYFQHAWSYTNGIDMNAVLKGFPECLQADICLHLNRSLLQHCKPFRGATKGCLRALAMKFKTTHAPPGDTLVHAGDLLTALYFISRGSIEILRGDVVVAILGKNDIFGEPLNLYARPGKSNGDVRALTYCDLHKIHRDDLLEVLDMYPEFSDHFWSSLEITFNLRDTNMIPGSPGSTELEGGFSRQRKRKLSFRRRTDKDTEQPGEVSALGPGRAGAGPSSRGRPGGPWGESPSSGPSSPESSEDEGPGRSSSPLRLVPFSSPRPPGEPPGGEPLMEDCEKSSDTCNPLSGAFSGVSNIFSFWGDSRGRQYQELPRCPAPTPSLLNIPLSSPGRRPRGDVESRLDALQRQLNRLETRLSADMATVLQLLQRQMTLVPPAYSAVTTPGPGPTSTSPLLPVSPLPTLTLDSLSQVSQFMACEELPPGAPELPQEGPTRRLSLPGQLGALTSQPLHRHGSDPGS

Structure (SMILES) | hERG current change (%, negative = inhibition) at 10uM
Cc1nc(CNS(=O)(=O)c2ccc3c(c2)OCCO3)cs1 | 3.18%
C/C(=N\NC(=O)C(=O)Nc1c(C)n(C)n(-c2ccccc2)c1=O)c1ccncc1 | -5.94%
CC(=O)ON1C(C)(C)CC(OC(=O)c2ccccc2)CC1(C)C | 7.94%
C/C=C/C(=O)Nc1ccccc1Br | 3.23%
COc1cc(OC)c(C(=O)OCC(=O)Nc2nnc(-c3ccccc3)o2)cc1OC | 6.07%
O=C(Nc1cccc(S(=O)(=O)N2CCCCC2)c1)C1CCCN1S(=O)(=O)c1ccccc1F (stereo not shown) | -7.07%
COC(=O)c1ccc(NC(=S)NNC(=O)CC(C)C)cc1 | 14.2%
O=C(NC1CCN(C(=S)NCc2ccco2)CC1)c1cccc(F)c1 | -47.1%
Cc1cc(-c2ccccc2)c2nncn2n1 | 7.69%
COc1ccc(Nc2c(-c3ccco3)nc3cccc(C)n23)cc1 | 8.67%
Cc1ccc(N/C=C(/C#N)c2ccsc2)cc1C | 0.958%
CN(CC1COc2ccccc2O1)C(=O)c1cccc(S(=O)(=O)N2CCCC2)c1 (stereo not shown) | -19.7%
COc1ccc(NC(=O)CCCn2c(=O)c3sccc3n(Cc3ccc(C)cc3)c2=O)cc1 | -5.72%
COC(=O)c1ccccc1OCC(=O)N1CCN(c2ccc(OC)cc2)CC1 | -11.3%
O=C(NCc1ccccc1)c1ccc(=O)[nH]n1 | -0.706%
O=C(Nc1cc(S(=O)(=O)N2CCOCC2)ccc1O)c1ccc2c(c1)S(=O)(=O)c1ccccc1C2=O | 31.2%
CN(C(=O)c1ccccc1C(=O)OCC(=O)Nc1ccc(S(N)(=O)=O)cc1)c1ccccc1 | -5.32%
CN(C)S(=O)(=O)n1ccnc1 | 6.16%
N#Cc1ccccc1S(=O)(=O)N1CCN(S(=O)(=O)c2ccc(Br)c(C(=O)O)c2)CC1 | 5.73%
CCN(CC(=O)Nc1ccccc1C(F)(F)F)C(=O)CCc1c(C)[nH]c(=O)c(C#N)c1C | 24.1%
Oc1ccc(-c2[nH]ncc2-c2ccc(Br)cc2)c(O)c1 | 7.08%
CCOc1ccc(CCNC(=O)CN2C(=O)CCSc3ccccc32)cc1 | -7.76%

Structure (SMILES) | hERG current change (%, negative = inhibition) at 10uM
COc1cccc(C2C3(C#N)C(N)=NC(OC)(OC)C23C#N)c1 (stereo not shown) | 9.01%
Cc1ccc(S(=O)(=O)Nc2cccc(C(=O)NCc3cccnc3)c2)cc1F | 9.69%
Cc1ccc(CNC(=O)COC(=O)CCCOc2ccc(Cl)cc2Cl)cc1 | 30.6%
O=C(NNC(=O)c1cc(-c2ccccc2)nn1-c1ccccc1)c1ccccc1 | -43.6%
O=C(O)c1ccc(NS(=O)(=O)c2ccc3nnn(O)c3c2)cc1 | -0.0153%
CC(=NCC1CCNCC1)C1=C(O)CC(C)(C)CC1=O | 17.1%
O=C(Nc1ccccc1N1CCCCC1)C1CCN(S(=O)(=O)c2ccccc2C(F)(F)F)CC1 | -4.19%
CN(C(=O)CCc1ccccc1)c1nnc(-c2ccncc2)s1 | -2.67%
Cc1ccc(/C=C/S(=O)(=O)NCC(=O)OCC(=O)Nc2c(F)cccc2F)cc1 | 10.9%
O=C(CN1C(=O)CCS(=O)(=O)c2ccccc21)NCc1ccc2c(c1)OCO2 | -2.31%
Cl.O=C(Cc1ccccc1)OCCN1CCOCC1 | 20.4%
CCN1CCN(c2cc3c(cc2F)c(=O)c(C(=O)O)cn3C2CC2)CC1 | 7.09%
CCCSCCCNC(=O)c1ccccc1NC(=O)C1=CSCCO1 | -22%
COc1cccc(CNCCc2cccc(F)c2)c1OC.O=C(O)C(=O)O | -5.22%
Cc1ccc(S(=O)(=O)NCc2ccc(C(=O)N(C)CCC#N)cc2)cc1 | -3.27%
Cc1cccc(OCCNc2cc(N3CCOCC3)ccc2[N+](=O)[O-])c1 | -12.8%
COc1ccc(CN2CCC(CNC(=O)NC3CCCCC3)CC2)cc1 | -67.7%
Nc1c(NC=O)c(=O)n(Cc2ccccc2)c(=O)n1Cc1ccccc1 | 12.6%
CCCCCSc1nc(C)c(CC(=O)O)c(=O)[nH]1 | 9.98%
CCC(C)NC(=O)c1ccccc1NC(=O)CN1C(=O)c2ccccc2S1(=O)=O (stereo not shown) | -16.9%
COc1ccc(N2CCN(C(=O)c3c(-c4ccccc4)noc3C)CC2)cc1 | -12.2%
Cc1ccc(-c2nn(-c3ccc(F)cc3)cc2C(=O)N2CCN(C3CCS(=O)(=O)C3)CC2)cc1 (stereo not shown) | -61.6%

Structure (SMILES) | hERG current change (%, negative = inhibition) at 10uM
CCn1c(=O)c2ccccc2n(Cc2ccc([N+](=O)[O-])cc2)c1=O | -77%
N#Cc1cc(-c2ccccc2)nnc1Sc1ccc(F)cc1 | 28.9%
O=C(CNC(=O)c1cccc(N2C(=O)c3ccccc3C2=O)c1)Nc1ccc(F)c(F)c1 | 4.85%
COc1ccc(COCC(O)CN2CCCCC2)cc1OC.Cl (stereo not shown) | 16.6%
O=C1C(=Cc2cccn2-c2ccccc2)C(=O)c2ccccc21 | 12.1%
CCc1cccc(NC(=O)CCCN2C(=O)C(c3ccccc3)Oc3cccnc32)c1 (stereo not shown) | -2.79%
COC(=O)c1ccc(COC(=O)c2ccc(-n3cnnn3)cc2)o1 | -32.3%
Fc1cccc(NC(=S)N2CCCCC2)c1 | 6.54%
O=C(Nc1ccc(/C=C/c2nc3ccccc3o2)cc1)c1cccc(C(F)(F)F)c1 | 0.151%
CCCCn1c(O)c(/C(C)=N/NC(=O)Nc2ccccc2)c(=O)[nH]c1=O | 7.7%
CC(=O)c1sc(NC(=O)c2ccc(F)cc2)nc1-c1ccccc1 | 2.04%
O=C(CN1CCOc2ccccc21)NCc1ccc(F)cc1 | -11%
CC(=O)Oc1cc2oc(=O)c3c(c2cc1Cl)CCC3 | 11.4%
O=C(c1sc2ccccc2c1Cl)N1CCC2(CC1)OCCO2 | -12.4%
Oc1ccc(Nc2nc(-c3ccccc3)nc3ccccc23)cc1 | 0.935%
O=C(N/C(=C\c1cccc([N+](=O)[O-])c1)C(=O)N1CCOCC1)c1cccc(Br)c1 | -4.26%
CCOC(=O)CSc1n[nH]c(NC(=O)NC(C)C)n1 | 10.6%
O=C(NC12CC3CC(CC(C3)C1)C2)N1CCN(S(=O)(=O)c2ccc(Cl)cc2)CC1 | -19.6%
CCOc1ccc(/C=C2\SC(=S)N(CCC(=O)O)C2=O)cc1 | 3.03%
CN(C)S(=O)(=O)c1ccc(Cl)c(NC(=O)COC(=O)C2CCCO2)c1 (stereo not shown) | 5.01%
COc1cc(/C=N\NC(=O)c2ccccc2F)ccc1Oc1ccc([N+](=O)[O-])cn1 | -36.6%
Cc1c(C(=O)N2CCN(S(=O)(=O)c3ccc(F)cc3)CC2)oc2ccccc12 | -12%

Structure (SMILES) | hERG current change (%, negative = inhibition) at 10uM
CN1CCN(c2ccccc2NC(=O)c2ccc(Br)o2)CC1 | -67.9%
O=C(/C=C/c1ccc(F)cc1)NCCc1ccc2c(c1)OCCO2 | -17%
Br.COc1ccc(/C=N/N(C)C2=NCCN2)c(OC)c1OC | 5.63%
CCC(=O)Nc1cccc(NC(=O)CSc2nnc(C3CC3)n2C)c1 | -1.38%
Cc1nnc(SCc2c(Cl)cccc2Cl)s1 | -4.22%
O=C(Cn1cnc2ccccc2c1=O)NCCC(=O)Nc1ccc2c(c1)OCCO2 | 4.96%
Cc1ccc(OCC(=O)NCC(=O)n2nc(C)cc2C)cc1 | -0.722%
COc1ccc(/C=C(\C#N)C(=O)NCc2ccccc2)cc1O | -13.1%
O=C(CCOc1ccccc1)Nc1ccnn1C1CCN(Cc2ccccc2)CC1 | -50%
COc1cc(OC)cc(-c2nnc(SCc3cccc(C(=O)O)c3)o2)c1 | 8.29%
O=C(COc1ccc(F)cc1)N1c2ccccc2CCc2ccccc21 | 14.3%
NC1=NC[C@H](c2ccccc2)N1CCCCC1CCCCC1 | -24.1%
COc1ccc(C(C(=O)NCC2CCCO2)N(C(=O)CNC(=O)c2ccco2)c2ccc(C)c(C)c2)cc1OC (stereo not shown) | 9.56%
C=CCO/N=C(/CCC)C1=C(N)CC(C)(C)CC1=O | 14.9%
CN(c1ccc(OCC(=O)Nc2nc(-c3ccccc3)cs2)cc1)S(=O)(=O)c1ccc(F)cc1 | -0.888%
Cc1nc2ccccc2nc1N/N=C/c1ccc(O)cc1 | 12.2%
CN(NS(=O)(=O)c1ccc(Cl)cc1)c1nc(C(F)(F)F)nc2ccccc12 | 22.2%
O=C(NCCN1C(=O)C2C3C=CC(C3)C2C1=O)Nc1ccc(Br)cc1 (stereo not shown) | -25%
COc1cccc(OC)c1NC(=O)c1nc2c(nnn2Cc2ccccc2Cl)c(=O)[nH]1 | -0.301%
CCOC(=O)c1cnc2ncnn2c1N | 14.7%
CCC(C)c1ccc(OCC(=O)Nc2cccc(C(=O)Nc3ccc(C(=O)O)cc3)c2)cc1 (stereo not shown) | -5.31%
N#Cc1ccccc1Sc1ccccc1C(=O)Nc1ccc2ccccc2c1 | 15.8%
